Measured values published in PMC4336329 (PLoS ONE, 2015).
The campaign covered roughly 310,000 compounds. About 14,000 (4.5%) showed an effect of 50% or more. Effects have a minus sign here. This is one part of the list.

These compounds were tested against human ether-à-go-go-related gene (hERG) potassium channel (human, UniProt Q12809) (assay: primary screen, population patch clamp on CHO cells stably expressing hERG).
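Further: peak tail current of the secondary pulse compared with the same well before compound.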

human ether-à-go-go-related gene (hERG) potassium channel, sequence (Q12809 whole entry, looked up): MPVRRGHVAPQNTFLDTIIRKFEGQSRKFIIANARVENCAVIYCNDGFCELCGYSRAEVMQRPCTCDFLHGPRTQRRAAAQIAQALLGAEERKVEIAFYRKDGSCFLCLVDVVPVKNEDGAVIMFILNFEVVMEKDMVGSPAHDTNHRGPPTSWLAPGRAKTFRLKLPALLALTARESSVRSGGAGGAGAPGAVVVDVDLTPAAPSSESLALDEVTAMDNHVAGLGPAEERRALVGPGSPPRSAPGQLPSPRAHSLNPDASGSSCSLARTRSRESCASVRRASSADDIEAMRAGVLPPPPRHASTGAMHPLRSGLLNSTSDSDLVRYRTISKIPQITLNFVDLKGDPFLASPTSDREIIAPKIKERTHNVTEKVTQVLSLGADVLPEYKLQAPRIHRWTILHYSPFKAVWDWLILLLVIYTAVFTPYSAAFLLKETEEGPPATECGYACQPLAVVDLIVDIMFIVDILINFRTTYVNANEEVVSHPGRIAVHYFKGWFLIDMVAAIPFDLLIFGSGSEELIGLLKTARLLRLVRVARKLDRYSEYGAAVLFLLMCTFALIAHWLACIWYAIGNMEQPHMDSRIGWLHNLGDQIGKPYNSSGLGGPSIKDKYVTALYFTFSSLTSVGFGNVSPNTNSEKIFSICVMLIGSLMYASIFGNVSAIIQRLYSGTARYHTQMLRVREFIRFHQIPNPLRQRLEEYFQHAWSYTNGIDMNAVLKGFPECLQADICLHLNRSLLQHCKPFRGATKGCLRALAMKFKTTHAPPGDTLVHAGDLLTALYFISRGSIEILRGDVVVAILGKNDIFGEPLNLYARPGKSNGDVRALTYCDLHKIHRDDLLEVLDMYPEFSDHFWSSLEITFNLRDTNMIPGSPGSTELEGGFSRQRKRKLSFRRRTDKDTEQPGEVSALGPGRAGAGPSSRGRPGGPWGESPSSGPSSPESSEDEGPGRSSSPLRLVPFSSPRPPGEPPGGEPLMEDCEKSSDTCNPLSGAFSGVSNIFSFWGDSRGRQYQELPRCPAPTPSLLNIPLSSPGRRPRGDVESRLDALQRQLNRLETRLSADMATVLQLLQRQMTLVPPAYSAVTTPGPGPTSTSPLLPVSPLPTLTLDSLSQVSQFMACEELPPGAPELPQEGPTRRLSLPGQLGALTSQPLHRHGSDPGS

SMILES | hERG current change (%, negative = inhibition) at 10uM [%]
COc1ccc(CCNC(=O)c2cc(S(=O)(=O)N3CCCCC3)c[nH]2)cc1OC | -11.9
O=C(CSc1n[nH]c(-c2ccncc2)n1)NC1CCS(=O)(=O)C1 (centres unmarked) | 4.14
Cc1ccc(C(=O)CSc2nc(C)cc(=O)[nH]2)cc1 | 6.03
CN(C)CCCOC(=O)CCc1ccccc1.Cl | 3.74
Cc1nc2c(c(C)c1C#N)C(=O)c1ccccc1-2 | 1.58
CC1=C(C(=O)N2CCOCC2)C(c2ccccc2F)C2=C(CCCC2=O)N1 (centres unmarked) | 14.3
CCN1CC(CN(C)Cc2cn(-c3ccc(C)cc3)nc2-c2ccc(F)cc2)CC1=O (centres unmarked) | -35.1
CCCCN(C(=O)/C=C/c1ccco1)c1c(N)n(CCC)c(=O)[nH]c1=O | 11.3
Cc1cc(C)c(C)c(S(=O)(=O)NCc2ccco2)c1C | -14.5
CCO/C=C1/C(=O)N(C(C)=O)c2ccccc21 | 24.3
O=C(Cn1c(=O)sc2ccccc21)Nc1ccccc1 | 6.95
CSc1oc(-c2ccccc2)nc1C(N)=O | -3.56
Cc1ccc(NC(=O)COC(=O)C2CCN(c3ccc(C(F)(F)F)cn3)CC2)cc1C | 9.77
CCOc1ccc(NC(=O)C2CCCN(c3nn4c(=O)cc(C)nc4s3)C2)cc1 (centres unmarked) | -7.14
Cc1cccc(OCc2nnc(SCC(=O)Nc3cc(C)on3)n2C)c1 | -0.112
Cc1nc2ccccc2c(=O)n1Nc1cccc(Cl)c1 | -7.49
COc1ccc(Cl)cc1-c1nc(SCC(N)=O)n[nH]1 | 16
Cc1c(C(=O)NN)nn(-c2ccc(Cl)cc2)c(=O)c1C#N | 6.96
CCc1ccc(NC(=S)NC2CC3CCCC(C2)N3Cc2ccccc2)cc1 (centres unmarked) | -70.9
Cc1ccc(NC(=O)C(C)OC(=O)CCNS(=O)(=O)c2ccc(C)cc2)cc1 (centres unmarked) | -16.5
COc1ccc(C2C(C(=O)c3ccco3)=C(O)C(=O)N2CCN2CCOCC2)c(OC)c1 (centres unmarked) | 25.1
S=C(NC1CC1)N1CCN(C(=S)NC2CC2)CC1 | 18.2
Nc1ccccc1C(=O)OCC(=O)c1ccc2c(c1)OCCO2 | 21.5

SMILES | hERG current change (%, negative = inhibition) at 10uM [%]
Cn1c(=O)c2c(nc(CN3CCC(C(N)=O)CC3)n2CCc2ccccc2)n(C)c1=O | 4.44
CCCS(=O)(=O)N1CCC(C(=O)Oc2ccc(OC)cc2)CC1 | 21.7
Cc1cc(C(=O)CSc2nn3c(=O)c(C(C)(C)C)nnc3s2)c(C)n1-c1ccc(F)cc1 | -7.43
COc1cc2ccc(=O)oc2c2ccoc12 | -11.1
Cc1ccc(N(CCC#N)C(=O)COC(=O)c2ccccc2SCC(=O)N2CCCC2)cc1 | -5.39
C/C=C/c1ccc(OCC(=O)Nc2cc(S(=O)(=O)N3CCOCC3)ccc2N2CCCC2)c(OC)c1 | 3.81
CC1(NC(=O)CSc2nnc(-c3c[nH]c4ccccc34)n2C2CC2)CCS(=O)(=O)C1 (centres unmarked) | -0.208
Cc1nn(CC(=O)NCCCN2C(C)CCCC2C)c(=O)c2cc3occc3n12 (centres unmarked) | 17.5
COc1ccc(C(=O)N2CCc3cc(OC)c(OC)cc3C2)cc1OC | 1.37
c1ccc2c(Cn3ccnc3)c[nH]c2c1 | 2.6
CCN(CC)CC(=O)Nc1ccc(C)cc1Br | 3.09
CCN(CC)S(=O)(=O)c1cc(C(=O)OCC(=O)Nc2ccc(-c3nc4ccc(C)cc4s3)cc2)ccc1F | 6.97
COc1ccc(OC)c(CNC(=O)c2coc(=O)c3ccccc23)c1 | 11
CN(c1ccc(OCC(=O)NC2CCCC2)cc1)S(=O)(=O)c1cccs1 | -80.6
O=C1CC(C(=O)N2CCOCC2)C2(CCCCC2)O1 (centres unmarked) | 17.8
Cc1ccc(O)c(NC(=O)c2ccccc2-c2ccccc2C(=O)O)c1 | 17.2
CCc1ccc(NC(=O)CN2C(=O)C(=O)N(Cc3ccccc3)C2=O)cc1 | 19.8
Cc1c(C(=O)Nc2ccc(Cl)cc2)c2ccccn2c1CCc1ccncc1 | -5.68
Cc1cccc(NC(=S)NCc2ccc3c(c2)cc(C)n3C)c1C | -9.2
CCC(C)(C(=O)NC1CCCC1)N(C(=O)CNC(=O)c1ccccc1)c1c(C)n(C)n(-c2ccccc2)c1=O (centres unmarked) | 14.2
COc1ccc(C(C(=O)NC2CCCC2)N(Cc2ccccc2)C(=O)CNC(=O)c2ccco2)cc1 (centres unmarked) | -16
Cc1nc(SCC(=O)NC2CCCC2)[nH]c(=O)c1C | 16.2
Oc1ccccc1-c1nnc(SCCN2CCOCC2)n1Cc1ccccc1 | -22.4

SMILES | hERG current change (%, negative = inhibition) at 10uM [%]
O=C(O)CN1C(=O)C2C3C=CC(C2C1=O)C1C(=O)N(CC(=O)O)C(=O)C31 (centres unmarked) | 21.8
CCOc1ccc(/C=N/Nc2ccccn2)cc1 | -3.72
CCOc1ncccc1C(=O)OCC(=O)Nc1ccc2c(c1)OCCO2 | 0.222
Cc1[nH]n2c(=O)c3c(nc2c1-c1ccccc1)CCCC3 | -9.26
COC(=O)c1ccccc1OCCCOc1ccc(C)cc1OC | -8.44
O=C(CSc1nnc(COc2ccccc2)o1)c1ccccc1 | 1.95
O=C(CC(=O)Nc1cccc(F)c1)Nc1cccc(F)c1 | 3.41
CCN(Cc1ccccc1)S(=O)(=O)c1cc(C(=O)NCC2CCCCC2)ccc1OC | -9.52
OCc1cc(-c2ccc(Cl)c(Cl)c2)on1 | 8.12
Cc1cc(C)n(CC(=O)Nc2ccc3c(c2)OCO3)c(=O)c1C#N | 2.59
O=C(CCNc1n[nH]c(=O)[nH]c1=O)N/N=C\c1cccc(OCc2ccccc2)c1 | 16.3
C=C1C2C[C@@]3([C@@H]1O)[C@@H](C[C@@H]2O)[C@@]12C4[C@@H]3C[C@@H]1[C@@](C)(CC[C@@H]2O)CN4CC | 19.7
Cc1cccc(NC(=O)CN2C(=O)N/C(=C/c3ccc(-c4cccc(C(=O)O)c4C)o3)C2=O)c1 | 14.3
CC(Sc1ccccc1)C(=O)Nc1ccccc1C(=O)N1CCOCC1 (centres unmarked) | 5.66
Cc1ccc(NC(=O)Nc2ccc3c(c2)C(=O)OC3)cc1Cl | 18.7
O=[N+]([O-])c1cccc(-c2nnc3ccccn23)c1 | -12.2
COc1cc(NC(=O)c2cc(S(=O)(=O)N3CCCCC3)c[nH]2)cc(OC)c1 | 11
COc1ccc(CCNC(=O)c2ccccc2NS(=O)(=O)c2cc(C(=O)O)ccc2OC)cc1 | 12.2
CCOC(=O)c1c(NC(=O)CSc2nc3cc(Cl)ccc3s2)sc(C(C)=O)c1C | -2.82
Cc1cccc(NCc2ccc(N(C)C)cc2)n1 | 3.87
COCc1cc(=O)[nH]c(/N=C(\N)Nc2cccc(C)c2)n1 | -1.25
Cc1c(Cl)cccc1Nc1nc(N)nc(CSc2ncccn2)n1 | -11.2
COc1cc(OC)cc(C(=O)NC(C)CCc2ccccc2)c1 (centres unmarked) | -25.9

SMILES | hERG current change (%, negative = inhibition) at 10uM [%]
CCN(CC)c1ccc(/C=N/NC(=O)c2ccco2)cc1 | -6.99
Cc1cc2[nH]c(=S)[nH]c2cc1C | -20.1
Cc1cccc(NC(=O)CSCC(=O)Nc2cc(Cl)ccc2N2CCOCC2)c1 | -31
Cc1ccccc1NC(=O)CC1S/C(=N/c2nccs2)N(C)C1=O (centres unmarked) | -0.096
COc1ccc(NC(=O)c2cc(Cl)ccc2NC(=O)c2ccco2)c(OC)c1 | -85.2
CC1CCCN(Cc2cccc(Oc3ccccc3)c2)C1 (centres unmarked) | -20.7
Brc1ccc(-c2n(-c3ccccn3)c3ccccc3[n+]2-c2ccccn2)cc1.[I-] | -29.9
CCC(C)c1ccccc1NC(=O)Cc1coc2cc3c(cc12)CCC3 (centres unmarked) | -10.8
CCCN(CCC)C(=O)c1cc(S(=O)(=O)N2CCCCC2)c[nH]1 | -5.77
Cc1cc(C)n2nc(SCC(=O)N/N=C/c3cccc(Br)c3)nc2n1 | 3.45
CSc1ccccc1NC(=O)CCn1c(=O)sc2ccccc21 | 4.6
O=C(CNS(=O)(=O)c1ccccc1)NNC(=O)C(Cl)Cl | 19.2
C[NH+](C)CC(C)(C)CNS(=O)(=O)c1cccc(Cl)c1Cl.[Cl-] | 5.82
C/C(CC(=O)Nc1ccccc1)=N\NC(=O)COc1ccc(C)cc1Br | 2.14
COC(=O)c1[nH]c2ccc(Br)cc2c1NC(=O)Oc1ccccc1 | 18.6
O=C(CSc1n[nH]c(=O)n1C1CC1)N1N=C(c2ccc(Cl)cc2)CC1c1ccco1 (centres unmarked) | -14.9
Cc1ccc(C(=O)COC(=O)CN2C(=O)C3C4C=CC(C4)C3C2=O)cc1C (centres unmarked) | 16.4
O=C(CN(CC1CCCO1)C(=O)CNS(=O)(=O)c1ccc(Cl)cc1)NCc1ccccc1 (centres unmarked) | -10.8
O=C(NC12CC3CC(CC(C3)C1)C2)c1cc([N+](=O)[O-])ccc1N1CCOCC1 | -29.2
Cc1cc(C)cc(SCc2noc(C(=O)NCCCN3CCOCC3)c2C(=O)NCCCN2CCOCC2)c1 | -30.4
